The text below walks through data of the supplement of paper PMC11125491.

± gives the standard deviation of the averaged measurements. Growth of baker's yeast expressing single-residue variants of Pneumocystis jirovecii dihydrofolate reductase in 8.8 or 44 µM methotrexate (about 75% and 90% inhibition of the wild type). Selection coefficient per generation; 0 = like wild type, above 0 = less sensitive, below 0 = more sensitive or loss of function. No active / inactive call per row; the paper calls resistant above 0.220 (8.8 µM) or 0.243 (44 µM) together with a significance test. At 44 µM about 15% of codons end with one read or none, so the lowest values are floors (replicate rank correlation 0.74; 0.94 at 8.8 µM).

B1: UniProt A0EPZ9; numbered along this chain (parent)
chain: MDWQKSLTLIVALTLSRGIGLKNDLPWKLKSDMMFFSRVTSGLLVTRSTGQMNVVLMGRKTWESLPAHSRPLKNRINVVISRQEVLDLGGGAYHARSLDDALALLSQIYDSTSKIQLNRVFVIGGGELCKAAMEHSRLNRIIATVIHNEVDCDVFFPIDFRSSQSCLPWRKQDHSVLEAWVGSKVPQGKINENGFIYEFEMWIRDI

The variants in the data set derive from B1. Briefly: selection coefficient against synonymous wild-type codons (log2 per generation); higher = faster growth than wild type. The note with it: with Saccharomyces cerevisiae carrying the variant on a plasmid. On the procedure: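 Pooled growth of yeast carrying single-residue variants of P. jirovecii dihydrofolate reductase (own DFR1 gene intact), two passages at 30 °C, three cultures, sequenced before and after. Codons with under 15 starting reads are left out; codons of one change are averaged.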

In the case of MDWQKSLTLIVALTLSRGIGLKNDLPWKLKSDMMFFSRVTSGLLVTRSTGQMNVVLMGRKTWESLPAHSRPLKNRINVVISRQEVLDLGGGAYHARSLDDALALLSQIYDSTSKGQLNRVFVIGGGELCKAAMEHSRLNRIIATVIHNEVDCDVFFPIDFRSSQSCLPWRKQDHSVLEAWVGSKVPQGKINENGFIYEFEMWIRDI [I115G], the “selection coefficient against synonymous wild-type codons (log2)” value (“selection coefficient … (log2)” below) reads like this: (methotrexate 8.8 µM) -0.0143 ± 0.072; (methotrexate 44 µM) -0.0544 ± 0.099.

Turning to MDWQKSLTLIVALTLSRGIGLKNDLPWKLKSDMMFFSRVTSGLLVTRSTGQMNVVLMGRKTWESLPAHSRPLKNRINVVISRQEVLDLGGGAYHARSLDDALALLSQIYDSTSKIQLNRVFVIGGGELCKAAMEHSRLNRIIATVITNEVDCDVFFPIDFRSSQSCLPWRKQDHSVLEAWVGSKVPQGKINENGFIYEFEMWIRDI [H147T], the “selection coefficient … (log2)” value (methotrexate 8.8 µM) was -0.00831 ± 0.067 and the “selection coefficient … (log2)” value (methotrexate 44 µM) is -0.187 ± 0.15.

In the case of MDWQKSLTLIVALTLSRGIGLKNDLPWKLKSDMMFFSRVTSGLLVTRSTGQMNVVLMGRKTWESLPAHSRPLKNRINVVISRQEVLDLGGGAYHARSLDDALALLSQIYDSTSKIQLNRVFVIGGGELCKAAMEHSRLNRIIATVIHNEVDCDVFHPIDFRSSQSCLPWRKQDHSVLEAWVGSKVPQGKINENGFIYEFEMWIRDI [F156H], the “selection coefficient … (log2)” value reads like this: (methotrexate 8.8 µM) 0.519 ± 0.049; (methotrexate 44 µM) 0.596 ± 0.038.

MDWQKSLTLIVALTLSRGIGLKNDLPWKLKSDMMFFSRVTSGLLVTRSTGQMNVVLMGRKTWESLPAHSRPLKNRINVVISRQEVLDLGGGAYHARSLDDALALLSQIYASTSKIQLNRVFVIGGGELCKAAMEHSRLNRIIATVIHNEVDCDVFFPIDFRSSQSCLPWRKQDHSVLEAWVGSKVPQGKINENGFIYEFEMWIRDI [D110A]: the “selection coefficient … (log2)” value runs as follows: (methotrexate 8.8 µM) -0.166 ± 0.046; (methotrexate 44 µM) -0.157 ± 0.12.

In the case of MDWQKSLTLIVALTLSRGIGLKNDLPWKLKSDMMFFSRVTSGLLVTRSTGQMNVVLMGRKTWESLPAHSRPLKNRINVVISRQEVLDLGGGAYHARSLDDALALLSQIYDSTSKIQLNRVFVIGGGELCKAAMEHSRLNRIIATVIHNEVDCDVFFPIFFRSSQSCLPWRKQDHSVLEAWVGSKVPQGKINENGFIYEFEMWIRDI [D159F], the “selection coefficient … (log2)” value was -0.115 ± 0.048 (methotrexate 8.8 µM) and -0.171 ± 0.2 (methotrexate 44 µM).

On to MDWQKSLTLIVALTLSRGIGLKNDLPWKLKSDMMFFSRVTSGLLVTRSTGQMNVVLMGRKTWESLPAHSRPLKNRINVVISRQEVLDLGGGAYHARSLDDALALLSQIYDSTSKIQLNRVFVIGGGELCKAAMEHSRLNRIIATVIHNEVDCDVFFPIDFRSSQSCLPWRYQDHSVLEAWVGSKVPQGKINENGFIYEFEMWIRDI [K171Y], for which the “selection coefficient … (log2)” value runs as follows: (methotrexate 8.8 µM) -0.261 ± 0.061; (methotrexate 44 µM) -0.212 ± 0.046.

Consider MDWQKSLTLIVALTLSRGIGLKNDLPWKLKSDMMFFSRVTSGLLVTRSTGQMNVVLMGRKTWESLPAHSRPLKNRINVVISRQEALDLGGGAYHARSLDDALALLSQIYDSTSKIQLNRVFVIGGGELCKAAMEHSRLNRIIATVIHNEVDCDVFFPIDFRSSQSCLPWRKQDHSVLEAWVGSKVPQGKINENGFIYEFEMWIRDI [V85A], for which the “selection coefficient … (log2)” value (methotrexate 8.8 µM) turned out to be 0.0723 ± 0.027 and the “selection coefficient … (log2)” value (methotrexate 44 µM) came to 0.054 ± 0.12.

In the case of MDWQKSLTLIVALTLSRGIGLKNDLPWKLKSDMMFFSRVTSGLLVTRSTGQMNVVLMGRKTWESLPAHSRPLKNRINVVISRQEVLPLGGGAYHARSLDDALALLSQIYDSTSKIQLNRVFVIGGGELCKAAMEHSRLNRIIATVIHNEVDCDVFFPIDFRSSQSCLPWRKQDHSVLEAWVGSKVPQGKINENGFIYEFEMWIRDI [D87P], the “selection coefficient … (log2)” value (methotrexate 8.8 µM) was -0.199 ± 0.085 and the “selection coefficient … (log2)” value (methotrexate 44 µM) was -0.208 ± 0.14.
